Test results as given in the supplement of paper PMC8728848.
The other results are listed elsewhere or left out.

Legend:
Assay in all cases: glycan array binding signal (z-score within array); higher = stronger binding
Conditions in all cases: glycan notation: IUPAC condensed, linker removed
Fuc(a1-2)Gal = target: Fuc(a1-2)Gal
Summary of the method: (§1)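 Glycan array binding is given as a within-array Z-score, which can be read as non-binding when negative. The arrays, 3228 of them, came from the Consortium for Functional Glycomics database and were retained only where the protein sequence was available. Z-scores were averaged across arrays of the same protein sequence at different concentrations or buffers and across linkers.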

Fuc(a1-2)Gal(b1-3)GalNAc = target: Fuc(a1-2)Gal(b1-3)GalNAc
Summary of the method: as §1

[1] = target: Fuc(a1-2)Gal(b1-3)GalNAc(a1-3)[Fuc(a1-2)]Gal(b1-4)Glc
Summary of the method: as §1

[2] = target: Fuc(a1-2)Gal(b1-3)GalNAc(a1-3)[Fuc(a1-2)]Gal(b1-4)GlcNAc
Summary of the method: as §1

[3] = target: Fuc(a1-2)Gal(b1-3)GalNAc(b1-3)Gal
Summary of the method: as §1

[4] = target: Fuc(a1-2)Gal(b1-3)GalNAc(b1-3)Gal(a1-4)Gal(b1-4)Glc
Summary of the method: as §1

[5] = target: Fuc(a1-2)Gal(b1-3)GalNAc(b1-4)[Neu5Ac(a2-3)]Gal(b1-4)Glc
Summary of the method: as §1

Fuc(a1-2)Gal(b1-3)GlcNAc = target: Fuc(a1-2)Gal(b1-3)GlcNAc
Summary of the method: as §1

[6] = target: Fuc(a1-2)Gal(b1-3)GlcNAc(b1-2)Man(a1-3)[Fuc(a1-2)Gal(b1-3)GlcNAc(b1-2)Man(a1-6)]Man(b1-4)GlcNAc(b1-4)GlcNAc
Summary of the method: as §1

[7] = target: Fuc(a1-2)Gal(b1-3)GlcNAc(b1-2)Man(a1-3)[Fuc(a1-2)Gal(b1-3)GlcNAc(b1-2)Man(a1-6)]Man(b1-4)GlcNAc(b1-4)[Fuc(a1-6)]GlcNAc
Summary of the method: as §1

[8] = target: Fuc(a1-2)Gal(b1-3)GlcNAc(b1-3)Gal(b1-4)Glc
Summary of the method: as §1

[9] = target: Fuc(a1-2)Gal(b1-3)GlcNAc(b1-3)GalNAc
Summary of the method: as §1

[10] = target: Fuc(a1-2)Gal(b1-3)GlcNAc(b1-3)[Fuc(a1-2)Gal(b1-3)GlcNAc(b1-6)]GalNAc
Summary of the method: as §1

[11] = target: Fuc(a1-2)Gal(b1-3)GlcNAc(b1-3)[Gal(b1-4)GlcNAc(b1-6)]Gal(b1-4)Glc
Summary of the method: as §1

[12] = target: Fuc(a1-2)Gal(b1-3)GlcNAc(b1-3)[Neu5Ac(a2-6)Gal(b1-4)GlcNAc(b1-6)]Gal(b1-4)Glc
Summary of the method: as §1

[13] = target: Fuc(a1-2)Gal(b1-3)GlcNAc6S
Summary of the method: as §1

[14] = target: Fuc(a1-2)Gal(b1-3)[Fuc(a1-4)]GlcNAc
Summary of the method: as §1

[15] = target: Fuc(a1-2)Gal(b1-3)[Fuc(a1-4)]GlcNAc(b1-2)Man(a1-3)[Fuc(a1-2)Gal(b1-3)[Fuc(a1-4)]GlcNAc(b1-2)Man(a1-3)]Man(b1-4)GlcNAc(b1-4)GlcNAc
Summary of the method: as §1

[16] = target: Fuc(a1-2)Gal(b1-3)[Fuc(a1-4)]GlcNAc(b1-2)Man(a1-3)[Fuc(a1-2)Gal(b1-3)[Fuc(a1-4)]GlcNAc(b1-2)Man(a1-6)]Man(b1-4)GlcNAc(b1-4)[Fuc(a1-6)]GlcNAc(b1-4)[Fuc(a1-6)]GlcNAc
Summary of the method: as §1

[17] = target: Fuc(a1-2)Gal(b1-3)[Fuc(a1-4)]GlcNAc(b1-3)[Fuc(a1-3)[Gal(b1-4)]GlcNAc(b1-6)]Gal(b1-4)Glc
Summary of the method: as §1

[18] = target: Fuc(a1-2)Gal(b1-3)[Fuc(a1-4)]GlcNAc(b1-3)[Gal(b1-4)GlcNAc(b1-6)]Gal(b1-4)Glc
Summary of the method: as §1

Fuc(a1-2)Gal(b1-4)Glc = target: Fuc(a1-2)Gal(b1-4)Glc
Summary of the method: as §1

Fuc(a1-2)Gal(b1-4)Glc6S = target: Fuc(a1-2)Gal(b1-4)Glc6S
Summary of the method: as §1

Fuc(a1-2)Gal(b1-4)GlcNAc = target: Fuc(a1-2)Gal(b1-4)GlcNAc
Summary of the method: as §1

[19] = target: Fuc(a1-2)Gal(b1-4)GlcNAc(b1-2)Man
Summary of the method: as §1

[20] = target: Fuc(a1-2)Gal(b1-4)GlcNAc(b1-2)Man(a1-3)[Fuc(a1-2)Gal(b1-4)GlcNAc(b1-2)Man(a1-6)]Man(b1-4)GlcNAc(b1-4)GlcNAc
Summary of the method: as §1

[21] = target: Fuc(a1-2)Gal(b1-4)GlcNAc(b1-2)Man(a1-3)[Fuc(a1-2)Gal(b1-4)GlcNAc(b1-2)Man(a1-6)]Man(b1-4)GlcNAc(b1-4)[Fuc(a1-6)]GlcNAc
Summary of the method: as §1

[22] = target: Fuc(a1-2)Gal(b1-4)GlcNAc(b1-2)[Fuc(a1-2)Gal(b1-4)GlcNAc(b1-4)]Man(a1-3)[Fuc(a1-2)Gal(b1-4)GlcNAc(b1-2)Man(a1-6)]Man(b1-4)GlcNAc(b1-4)GlcNAc
Summary of the method: as §1

[23] = target: Fuc(a1-2)Gal(b1-4)GlcNAc(b1-3)Gal(b1-4)GlcNAc
Summary of the method: as §1

[24] = target: Fuc(a1-2)Gal(b1-4)GlcNAc(b1-3)Gal(b1-4)GlcNAc(b1-2)Man(a1-3)[Fuc(a1-2)Gal(b1-4)GlcNAc(b1-3)Gal(b1-4)GlcNAc(b1-2)Man(a1-6)]Man(b1-4)GlcNAc(b1-4)GlcNAc
Summary of the method: as §1

B1: PX14367A-bth-493-35-493 (Bacteroides thetaiotaomicron) (protein)
chain: VSSDQVAVAGNAERLFNGAWYNLFEYGTTYANIGYRALQCQDDMMASDVVSRPKYGFNSSYQFNDVAIPSDGRTSFAWYLIYKTIDNCNTAISIKGDSEELRQAQGQALALRAFCYLHLVQHYQFTYLKDKDAPCVPIYTEPTTSGTKPKGKSTVAQVYQQIFDDLNLAQDYLTNYVRKGDGQKFKPNTDVVNGLMARAYLLTGQWGEAAKAAEAARKGYSLMTTTAEYEGFNNISNKEWIWGSPQTLSQSDASYNFYYLDATYVGAYSSFMADPHLMDTFVKGDIRLPLFQWMREGYLGYKKFHMRSDDTADLVLMRSAEMYLIEAEAKVRDGVALDQAVAPLNTLRTARGVGNYDVTGKTKEQVIDEILMERRRELWGEGFGITDVLRNQKAVERMALSEDMQKTEVDCWQEGGSFAKRNPLGHWFLNFPDGKAFSANSSYYLYAIPEKEINANPNL
glycan array binding signal (z-score) (Fuc(a1-2)Gal): -0.135 | glycan array binding signal (z-score) (Fuc(a1-2)Gal(b1-3)GalNAc): -0.477 | glycan array binding signal (z-score) [1]: -0.547 | glycan array binding signal (z-score) [2]: -0.426 | glycan array binding signal (z-score) [3]: -0.312 | glycan array binding signal (z-score) [4]: 0.208 | glycan array binding signal (z-score) [5]: -0.469 | glycan array binding signal (z-score) (Fuc(a1-2)Gal(b1-3)GlcNAc): -0.702 | glycan array binding signal (z-score) [6]: 2.29 | glycan array binding signal (z-score) [7]: -0.196 | glycan array binding signal (z-score) [8]: -0.473 | glycan array binding signal (z-score) [9]: -0.439 | glycan array binding signal (z-score) [10]: 0.845 | glycan array binding signal (z-score) [11]: 0.288 | glycan array binding signal (z-score) [12]: -0.361 | glycan array binding signal (z-score) [13]: -0.417 | glycan array binding signal (z-score) [14]: -0.043 | glycan array binding signal (z-score) [15]: -0.095 | glycan array binding signal (z-score) [16]: -0.389 | glycan array binding signal (z-score) [17]: -0.004 | glycan array binding signal (z-score) [18]: -0.403 | glycan array binding signal (z-score) (Fuc(a1-2)Gal(b1-4)Glc): -0.535 | glycan array binding signal (z-score) (Fuc(a1-2)Gal(b1-4)Glc6S): 0.408 | glycan array binding signal (z-score) (Fuc(a1-2)Gal(b1-4)GlcNAc): -0.413 | glycan array binding signal (z-score) [19]: -0.165 | glycan array binding signal (z-score) [20]: 2.44 | glycan array binding signal (z-score) [21]: 0.806 | glycan array binding signal (z-score) [22]: 0.91 | glycan array binding signal (z-score) [23]: -0.336 | glycan array binding signal (z-score) [24]: 0.127
